The supplement of paper PMC11348887
Where “and” joins values, the source holds several entries; their conditions need not be identical. Identical values can stand only once. Counter-ions that a name gives are not always drawn. Some of the results follow. Rule as the data show it: active = -2 or less and inactive = the rest. Most values come without repeats; read them as rough.

Tested on: hPSC-derived cortical neurons (WA09)
Assay: nuclei number (viability) z-score; higher = more surviving cells
Conditions: 5 µM; treatment: days 7-14 after plating, readout day 21
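Also: nuclei counted from DAPI counterstain by automated high-content image analysis, four fields per well at ×20 in 384-well plates, with sequential b-score then z-score normalization.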

| SMILES | nuclei number (z-score) |
| --- | --- |
| COc1ccc(-c2cc(=O)c3c(OC)c(OC)c(OC)c(OC)c3o2)cc1 [Tangeretin] | inactive: 0.388 |
| Cc1ccc(CNc2ncnc3ccc(-c4ccc(CO)o4)cc23)o1 | inactive: 2.07 |
| CN1C(C(=O)Nc2ccccn2)=C(O)c2sc(Cl)cc2S1(=O)=O [Lornoxicam] | inactive: -0.339 |
| CC12CC3CC(C)(C1)CC(N)(C3)C2 [Memantine HCl] | inactive: -0.66 |
| Cc1cc(C)nc(NS(=O)(=O)c2ccc(NC(=S)NC(=O)COc3ccc(Br)cc3Cl)cc2)n1 | inactive: 0.605 |
| O=C(Nc1cccnc1)N1CCC(Cc2cccc(Oc3ccc(C(F)(F)F)cn3)c2)CC1 | inactive: 3.42 |
| Cc1cccc(-c2nn3c(c2-c2ccnc4ccc(C(N)=O)cc24)CCC3)n1 | inactive: 5.02 |
| CC(C)c1nc(CN(C)C(=O)N[C@@H](CCN2CCOCC2)C(=O)N[C@H](CC[C@H](Cc2ccccc2)NC(=O)OCc2cncs2)Cc2ccccc2)cs1 [Cobicistat (GS-9350)] | inactive: 0.157 |
| Cc1ccc(Sc2cncc3sc(C(N)=O)cc23)cc1 | inactive: 6.98 |
| Nc1cc(C(F)(F)F)c(-c2cc(N3CCOCC3)nc(N3CCOCC3)n2)cn1 [BKM120 (NVP-BKM120_ Buparlisib)] | inactive: -1.29 |
| Cc1c(C(=O)Nc2ccc(N3C[C@@H](C)O[C@@H](C)C3)nc2)cccc1-c1ccc(OC(F)(F)F)cc1 [LDE225 (NVP-LDE225_Erismodegib)] | inactive: -0.616 |
| Cc1cnc(NC(=O)Nc2cc(Br)c(C)cc2OC[C@@H]2CNCCO2)cn1 | inactive: 0.00471 |
| CCOC(N)=O [Urethane] | inactive: 6.95 |
| COc1cccc(-c2cc(F)ccc2C2Cc3nc(N)nc(C)c3C(=O)N2)n1 (stereo unspecified) | active: -4.57 |
| O=c1cc(N2CCOCC2)oc2c(-c3ccccc3)cccc12 | inactive: 0.17 |
| O=C1c2cccc(O)c2C(=O)c2c(O)cccc21 [Danthron] | inactive: 0.103 |
| COc1cc(Nc2ncc3c(n2)-c2ccc(Cl)cc2C(c2c(F)cccc2OC)=NC3)ccc1C(=O)O [Alisertib (MLN8237)] | active: -3.31 |
| CCCCC(=O)N(Cc1ccc(-c2ccccc2-c2nnn[nH]2)cc1)[C@H](C(=O)O)C(C)C [Valsartan] | inactive: 1.6 |
| CCc1ccc(/C=C2/SC(=S)NC2=O)cc1 | inactive: 2.72 |
| Cc1ccc(Nc2nccc(N(C)c3ccc4c(C)n(C)nc4c3)n2)cc1S(N)(=O)=O | inactive: -0.0132 |
| Cc1ccc(Nc2nccc(N(C)c3ccc4c(C)n(C)nc4c3)n2)cc1S(N)(=O)=O [Pazopanib] | inactive: 1.17 |
| CCOC(CN1CCN(CC(C)C(=O)c2ccccc2)CC1)c1ccccc1 (stereo unspecified) [Eprazinone 2HCl] | inactive: -0.135 |
| OCC(CO)N[C@H]1C[C@](O)(CO)[C@@H](O)[C@H](O)[C@H]1O [Voglibose] | inactive: 10.7 |
| C=CCNc1ncnc2ccc(Br)cc12 | inactive: 1.32 |

| SMILES | nuclei number (z-score) |
| --- | --- |
| COC(=O)/C=C/C(=O)OC [Dimethyl Fumarate] | inactive: 0.161 |
| C[N+](C)(C)CCOC(N)=O [Carbachol] | inactive: 0.957 |
| CC(C)c1cc(C(C)C)c(CC(=O)NS(=O)(=O)Oc2c(C(C)C)cccc2C(C)C)c(C(C)C)c1 [Avasimibe] | inactive: 3.46 |
| O=C(NNc1nc2cc(F)ccc2n2cccc12)c1cnccn1 | active: -2.74 |
| O=C(NC(Cc1cc(=O)[nH]c2ccccc12)C(=O)O)c1ccc(Cl)cc1 (stereo unspecified) [Rebamipide] | inactive: 0.252 |
| COc1ccc2[nH]cc(/C=C3\C(=O)Nc4ccc(NC(=O)CCN5CCCCC5)cc43)c2c1 | inactive: -0.714 |
| CCOC(=O)c1ccc(NC2CCCCC2)c(N)c1 [Ferrostatin-1 (Fer-1)] | inactive: 0.482 |
| O=C1c2c(O)ccc(O)c2C(=O)c2c(NCCNCCO)ccc(NCCNCCO)c21 [Mitoxantrone] | active: -5.14 |
| O=C1c2c(O)ccc(O)c2C(=O)c2c(NCCNCCO)ccc(NCCNCCO)c21 [Mitoxantrone HCl] | active: -5 |
| CC1(C)CC[C@]2(NC(=O)C(C)(F)F)CC[C@]3(C)[C@H](C(=O)C=C4[C@@]5(C)C=C(C#N)C(=O)C(C)(C)[C@@H]5CC[C@]43C)[C@@H]2C1 [Omaveloxolone (RTA-408)] | active: -2.46 |
| CN1CCN(Cc2ccc(-c3cnc4[nH]cc(-c5ccc6[nH]ccc6c5)c4c3)cc2)CC1 | active: -5.5 |
| C[C@H](CCC(=O)O)[C@H]1CC[C@H]2[C@@H]3C(=O)C[C@@H]4CC(=O)CC[C@]4(C)[C@H]3CC(=O)[C@]12C [Dehydrocholic acid] | inactive: 0.678 |
| CCOC(=O)C1=C(C)NC(C)=C(C(=O)OC)C1c1cccc(Cl)c1Cl (stereo unspecified) [Felodipine] | inactive: -1.27 |
| CCCCc1ncc(/C=C(\Cc2cccs2)C(=O)O)n1Cc1ccc(C(=O)O)cc1 [Eprosartan Mesylate] | inactive: -0.997 |
| CN1CCCN(C(=O)c2cccc(-c3ccc(/C=C4/C(=O)Nc5ccc(Cl)cc54)o3)c2)CC1 | active: -6.62 |
| CCCCCCCCOc1ccccc1C(=O)Nc1ccc(C(=O)OCC[N+](C)(CC)CC)cc1 [Otilonium Bromide] | active: -6.08 |
| CN1CCN2c3ccccc3Cc3ccccc3C2C1 (stereo unspecified) [Mianserin HCl] | inactive: 0.715 |
| O=C(O)CCC(=O)c1ccc(-c2ccccc2)cc1 [Fenbufen] | active: -2.78 |
| O=C(Nc1ccccc1)N1CCN(c2nc(-c3ccccc3)ns2)CC1 | inactive: 0.553 |
| Clc1cccc(CN=C2Nc3ccccc3NC23CCNCC3)c1 [Liproxstatin-1] | inactive: 0.608 |
| CC(C)C[C@H](NC(=O)[C@@H](Cc1cccc2ccccc12)NC(=O)[C@H](Cc1ccc(O)cc1)NC(=O)[C@H](CO)NC(=O)[C@H](Cc1c[nH]c2ccccc12)NC(=O)[C@H](Cc1cnc[nH]1)NC(=O)[C@@H]1CCC(=O)N1)C(=O)N[C@@H](CCCNC(=N)N)C(=O)N1CCC[C@H]1C(=O)NCC(N)=O [Nafarelin Acetate] | inactive: 1.29 |
| CC(CNC(=O)c1cccnc1)NC(=O)c1cccnc1 (stereo unspecified) [Nicaraven] | inactive: 3.4 |
| O=C(c1ccc(Cl)cc1)N(Cc1ccccc1)C1CCCCC1 | inactive: 0.677 |
| CN(c1ncccc1CNc1nc(Nc2ccc3c(c2)CC(=O)N3)ncc1C(F)(F)F)S(C)(=O)=O | inactive: 0.0601 and inactive: -0.218 and inactive: -0.507 |

| SMILES | nuclei number (z-score) |
| --- | --- |
| CCc1ccc(OCc2ccccc2C(=O)Nc2ccc3nc(C)cc(N)c3c2)cc1 | active: -5.44 |
| CN(C)CCc1c[nH]c2ccc(CS(=O)(=O)N3CCCC3)cc12 [Almotriptan Malate] | inactive: -0.483 |
| Cn1nc(C(C)(C)C)cc1C(=O)N[C@@H](Cc1cccc(Cl)c1)C(=O)NCC#N [Cathepsin Inhibitor 1] | active: -2.27 |
| NNC(=O)c1ccncc1.Nc1ccc(C(=O)O)c(O)c1 [Pasiniazid] | inactive: 0.33 |
| CN(C[C@@H]1COCCO1)S(=O)(=O)Nc1ccc2ccc3ncc(-c4cnn(C)c4)cc3c(=O)c2c1 | inactive: 1.49 |
| CCCc1nn(C)c2c(=O)[nH]c(-c3cc(S(=O)(=O)N4CCN(C)CC4)ccc3OCC)nc12 [Sildenafil] | inactive: 1.5 |
| CCCc1nn(C)c2c(=O)[nH]c(-c3cc(S(=O)(=O)N4CCN(C)CC4)ccc3OCC)nc12 [Sildenafil Mesylate] | inactive: 0.00382 |
| CCCc1nn(C)c2c(=O)[nH]c(-c3cc(S(=O)(=O)N4CCN(C)CC4)ccc3OCC)nc12 [Sildenafil Citrate] | inactive: 0.107 |
| O=[N+]([O-])c1ccc(O)c2ncccc12 [Nitroxoline] | inactive: -0.696 |
| N#CC[C@H](C1CCCC1)n1cc(-c2ncnc3[nH]ccc23)cn1 | inactive: -0.353 |
| CC(=O)Oc1ccc(C(c2ccc(OC(C)=O)cc2)c2ccccn2)cc1 [Bisacodyl] | inactive: -0.682 |
| CCOC(=O)CC(=O)N1CCSC1COc1ccccc1OC (stereo unspecified) [Moguisteine] | inactive: 0.00726 |
| CCNC1(C(N)=O)CCN(c2ncnc3c2nc(-c2ccccc2Cl)n3-c2ccc(Cl)cc2)CC1 | inactive: -0.708 |
| CCC(C)(C)C(=O)O[C@H]1C[C@@H](C)C=C2C=C[C@H](C)[C@H](CC[C@@H]3C[C@@H](O)CC(=O)O3)[C@H]21 [Simvastatin] | inactive: 0.381 |
| O=C(CSc1nc2c(c(=O)n1-c1ccccc1)SCC2)Nc1ccc(-c2ccccc2)cn1 | inactive: 4.13 |
| O=C(c1ccc(F)c(F)c1Nc1ccc(I)cc1F)N1CC(O)([C@@H]2CCCCN2)C1 [Cobimetinib (GDC-0973_ RG7420)] | inactive: -0.0797 |
| O=S(=O)(c1cccc2cnccc12)N1CCCNCC1 [Fasudil (HA-1077) HCl] | inactive: 2.53 |
| COc1cc2nc(N3CCCN(C)CC3)nc(NC3CCN(Cc4ccccc4)CC3)c2cc1OC | active: -5.52 |
| CC(C)c1cnn2c(NCc3ccccc3)cc(NCCCCCCN)nc12 | inactive: -1.27 |
| C[C@H](Nc1ncnc2nc[nH]c12)c1cc2cccc(Cl)c2c(=O)n1-c1ccccc1 | inactive: 0.619 |
| CCC1(C)CC(=O)NC1=O (stereo unspecified) [Ethosuximide] | inactive: -0.106 |
| CC(C)(O)CC(=O)NCCn1ccc2ncnc(Nc3ccc(Oc4cccc(C(F)(F)F)c4)c(Cl)c3)c21 | inactive: 0.104 |
| C[N+](C)(CCOc1ccccc1)Cc1ccccc1.O=C([O-])c1cc2ccccc2cc1O [Bephenium Hydroxynaphthoate] | inactive: 0.575 |
